The supplement of paper PMC9334596
Several values for one entry are separate records, joined by “and”; a condition that tells them apart may be missing. Identical values can stand only once. The full ranking holds about 5,300 compounds; the median of “PER2::LUC luminescence relative to vehicle control” is about 0.96, and the highest 2% start at about 1.3. This is one part of the list.

System: mPer2Luc MEF
Experiment: PER2::LUC luminescence relative to vehicle control (fold of vehicle); higher = higher PER2::LUC reporter signal
Details: 10 µM
Procedure, shortened: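 The value is PER2::LUC luminescence expressed as fold of vehicle control. Mouse embryonic fibroblasts carrying the mPer2Luc reporter were seeded at ~3000 cells per well in 384-well plates and grown in DMEM with 10% FBS at 37 °C and 5% CO2. Compounds from commercial libraries were added at 10 μM 48 h after seeding, and luminescence was read with the ONE-Glo luciferase assay system 24 h and 30 h after treatment, followed by an alamarBlue viability assay.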

| SMILES | PER2::LUC luminescence (time after treatment 24 h) | PER2::LUC luminescence (time after treatment 30 h) |
| --- | --- | --- |
| NCc1c[nH]c(=S)n1[C@H]1CCc2c(F)cc(F)cc2C1 | 0.941 | 1.04 |
| C[C@@H]1CC2C3C[C@H](F)C4=CC(=O)C=C[C@]4(C)[C@@]3(F)[C@@H](O)C[C@]2(C)[C@@]1(O)C(=O)COC(=O)C(C)(C)C (some centres undefined) | 0.848 | 1.04 |
| Cn1c(SCC(=O)N2CCC[C@H]2C(=O)Nc2ccccc2-c2ccccc2)nc2ccccc21 | 1.16 | 1.07 |
| O=C(O)CCc1nc2ccccc2[nH]1 | 0.977 | 0.934 |
| Nc1nccs1 | 1.03 | 0.912 |
| NC(=O)c1cccnc1 | 0.907 and 1.02 | 0.911 and 1.21 |
| O=S(=O)(NC1CCNCC1)c1cc(S(=O)(=O)c2ccccc2)ccc1C(F)(F)F | 0.906 | 0.927 |
| CCCc1nc(C(C)(C)O)c(C(=O)OCc2oc(=O)oc2C)n1Cc1ccc(-c2ccccc2-c2nnn[nH]2)cc1 | 0.605 | 0.653 |
| Cn1c(=O)c2c(ncn2CC(O)CO)n(C)c1=O (centres undefined) | 0.855 and 0.96 | 1.08 and 0.885 |
| C=CC1=C(C)C2=CC3=NC(=C(CC(=O)O)C4=NC(=C(C)C4=C(O)O)C=c4[nH]c(c(C)c4CC)=CC1=N2)C(CCC(=O)O)C3C (centres undefined) | 0.911 | 0.984 |
| Cc1c(Cn2c(C)nc3c(C(=O)O)cc(N4CCOCC4)cc32)cccc1C(F)(F)F | 0.961 | 0.924 |
| O=C(NCc1ccc(Oc2ccccc2)cc1)c1nc(-c2cc(Br)c(O)c(Br)c2)no1 | 1.03 | 0.984 |
| CCCCCCCCCCCCCCCC[N+](C)(C)C |  | 0.191 and 0.0662 |
| Nc1cc(F)ccc1NC(=O)c1ccc(CNC(=O)/C=C/c2cccnc2)cc1 | 0.728 | 0.71 |
| NC(=O)C1(N2CCCCC2)CCN(CCCC(=O)c2ccc(F)cc2)CC1 | 0.914 | 1.08 |
| CNC1(C)C2CCC(C2)C1(C)C (centres undefined) | 0.974 | 1.17 |
| N#CC(=C(/N)Sc1ccccc1N)/C(C#N)=C(\N)Sc1ccccc1N | 0.834 | 0.658 |
| CC1=C(C(=O)O)N2C(=O)[C@@H](NC(=O)[C@H](N)c3ccc(O)cc3)[C@H]2SC1 | 0.974 | 0.959 |
| NC(=O)[C@@H](CCC(F)(F)F)N(Cc1ccc(-c2ncon2)cc1F)S(=O)(=O)c1ccc(Cl)cc1 | 1.28 | 1.03 |
| COc1ccc(CNCc2cccc3ccccc23)cc1 | 1.03 | 0.982 |
| O=C(O)CCC/C=C\C[C@@H]1[C@@H](/C=C/[C@H](O)C2Cc3ccccc3C2)[C@@H](F)C[C@@H]1O | 0.81 | 0.935 |
| Cc1[nH]c(/C=C2\C(=O)Nc3ccc(S(=O)(=O)Cc4c(Cl)cccc4Cl)cc32)c(C)c1C(=O)N1CCC[C@@H]1CN1CCCC1 | 0.646 | 0.685 |
| C=CCN1CCCC1CNC(=O)c1cc2nn[nH]c2cc1OC (centres undefined) | 0.923 | 0.938 |
| OC[C@H]1O[C@@H](O[C@H]2[C@H](O)[C@@H](O)[C@@H](O)O[C@@H]2CO)[C@H](O)[C@@H](O)[C@@H]1O | 0.982 | 0.927 |
| Nc1nc(Nc2ccc(S(N)(=O)=O)cc2)nn1C(=O)c1c(F)cccc1F | 0.924 | 0.712 |
| CC(C)c1onc(-c2c(Cl)cccc2Cl)c1COc1ccc(/C=C/c2cccc(C(=O)O)c2)c(Cl)c1 | 1.86 | 2.03 |
| COc1cc(C)c2c(=O)cc(-c3ccccc3)oc2c1 | 1.64 | 1.76 |
| CCCCCCOc1nsnc1C1=CCCN(C)C1 | 0.889 | 0.859 |

| SMILES | PER2::LUC luminescence (time after treatment 24 h) | PER2::LUC luminescence (time after treatment 30 h) |
| --- | --- | --- |
| N[C@@H](CSS(=O)(=O)O)C(=O)O | 1.11 | 0.979 |
| CC(C)(Oc1ccc(C2CC2(Cl)Cl)cc1)C(=O)O (centres undefined) | 0.924 | 0.959 |
| c1ccc2c(-c3cnn4cc(-c5ccc(N6CCNCC6)cc5)cnc34)ccnc2c1 | 0.022 | 0.018 |
| O=c1c(N=Nc2ccc(CS(=O)(=O)O)cc2)c(-c2ccc(C[N+](=O)[O-])cc2)[nH]n1-c1ccccc1 | 1.09 | 1.08 |
| O=C(O)[C@@H](S)[C@@H](S)C(=O)O | 1.05 | 1.07 |
| CCCCNc1ncc(-c2ccc(CN3CCOCC3)cn2)c(NC2CCC(O)CC2)n1 (centres undefined) | 0.988 | 0.977 |
| CCOc1nc2cccc(C(=O)OC(C)OC(=O)OC3CCCCC3)c2n1Cc1ccc(-c2ccccc2-c2nn[nH]n2)cc1 (centres undefined) | 1.03 and 1 | 1 |
| Nc1ccc(S(N)(=O)=O)cc1 | 0.96 | 0.827 |
| Nc1ncnc2c1ncn2[C@H]1C[C@H](O)[C@@H](CO)O1 | 1.03 | 1.07 |
| CC1CCN(CCCC(=O)c2ccc(F)cc2)CC1 | 0.977 and 0.957 | 0.871 and 0.803 |
| Clc1ccc(-c2nc3sccn3c2/C=N/OCc2ccc(Cl)c(Cl)c2)cc1 | 0.997 | 1.01 |
| CCN1CCC[C@H]1CNC(=O)c1cc(S(N)(=O)=O)ccc1OC | 1.09 and 1.12 | 0.964 and 1.08 |
| COc1c(O)cc(O)c2c(=O)cc(-c3ccccc3)oc12 | 1.03 | 1.02 |
| O=c1cc(O)cc(/C=C/c2ccc(O)c(O)c2)o1 | 1.08 | 0.921 |
| Cc1ccc(NC(=S)NNc2c([N+](=O)[O-])cc(C(F)(F)F)cc2[N+](=O)[O-])cc1Cl | 0.722 | 0.87 |
| CCCNS(=O)(=O)Nc1ncnc(OCCOc2ncc(Br)cn2)c1-c1ccc(Br)cc1 | 0.986 | 1.01 |
| CC(CCc1ccc(O)cc1)NCCc1ccc(O)c(O)c1 (centres undefined) | 0.614 | 0.59 |
| [N-]=[N+]=N[C@]1(CO)O[C@@H](n2ccc(N)nc2=O)[C@@H](O)[C@@H]1O | 1.06 | 0.915 |
| CCOCc1cc(OC)c(-c2ccc(C[C@H](NC(=O)c3c(F)cccc3F)C(=O)O)cc2)c(OC)c1 | 0.99 | 1.02 |
| CC(=O)c1ccc(NS(C)(=O)=O)c(Oc2ccc(F)cc2F)c1 | 1.06 | 1 |
| N[C@@H](CCC(=O)N[C@@H](CSN=O)C(=O)NCC(=O)O)C(=O)O | 1.1 | 1.08 |
| NC(=O)c1ncn(C2OC(COP(=O)(O)O)C(O)C2O)c1N (centres undefined) | 1.36 | 1.3 |
| O=c1cc(-c2ccccc2)oc2ccc(O)cc12 | 1.47 | 1.89 |
| CCC(C)(C)c1ccc(CC(C)CN2C[C@@H](C)O[C@@H](C)C2)cc1 (some centres undefined) | 0.968 and 0.591 | 1.04 and 0.891 |
| COc1cnc(-n2cnc(C)n2)c2[nH]cc(C(=O)C(=O)N3CCN(C(=O)c4ccccc4)CC3)c12 | 1.11 | 1.02 |
| CC(C)(C)C#Cc1cc(N(C(=O)[C@H]2CC[C@H](C)CC2)[C@H]2CC[C@H](O)CC2)c(C(=O)O)s1 | 1.14 | 1.18 |
| CC(C)N(CCC(=O)c1ccc2ccccc2c1)Cc1ccccc1 | 0.918 | 0.981 |
